Hit rate of the full screen: of about 340,000 compounds, about 6,900 (2%) were called active. Rule as the data show it: active = inhibition above about 30%; inactive = below that, where a call was filed. Only a part is listed here, and it is no random draw. The source gives no active or inactive call for entries shown without one.
target: D(2) dopamine receptor (Homo sapiens) (UniProt P14416); test: HTS Assay for Allosteric Antagonists of the Human D2 Dopamine Receptor: Primary Screen for Antagonists; conditions: HEK293 TREx D2 cells, calcium flux, dopamine EC80; at 10 µM; stronger effect = higher value; also: 0% is about no effect
Sequence of UniProt P14416 (P14416 whole entry, looked up): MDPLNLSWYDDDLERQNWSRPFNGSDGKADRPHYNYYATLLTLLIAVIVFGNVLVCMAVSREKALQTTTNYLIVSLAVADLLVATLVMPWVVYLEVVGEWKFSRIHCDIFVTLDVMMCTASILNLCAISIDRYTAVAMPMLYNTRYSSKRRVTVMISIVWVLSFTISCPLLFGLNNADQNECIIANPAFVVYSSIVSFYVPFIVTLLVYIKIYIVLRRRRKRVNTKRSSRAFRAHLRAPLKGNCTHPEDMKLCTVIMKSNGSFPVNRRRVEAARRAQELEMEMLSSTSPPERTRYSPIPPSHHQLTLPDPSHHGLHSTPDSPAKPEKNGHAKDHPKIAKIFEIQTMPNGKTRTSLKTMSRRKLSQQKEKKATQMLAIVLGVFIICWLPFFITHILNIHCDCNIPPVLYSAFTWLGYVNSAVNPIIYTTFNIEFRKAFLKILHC
Source text: NIH Chemical Genomics Center [NCGC] NIH Molecular Libraries Probe Centers Network [MLPCN] MLPCN Grant: NS064831-01 Assay Submitter (PI): David Sibley Dopamine receptors (DARs) are involved in the etiology and/or therapy of a number of neuropsychiatric and endocrine disorders. For instance, all receptor-based antiparkinsonian drugs work via stimulating the D2 DAR subtype whereas all FDA-approved antipsychotic agents are antagonists of this receptor. […] There are three different types of allosteric modulators that we are seeking, two of which will stimulate or augment receptor signaling, allosteric agonists and potentiators, while the third, allosteric antagonists, will attenuate receptor signaling. The present primary screening assay measures compound antagonism after an EC80 addition of dopamine by tracking calcium flux in a […], inducible Hek293 Trex D2 cell line.
Freshly passaged cells are plated in 1536 well black, clear bottom plates at a density of 4000 cells/well in 3 ul of complete media containing 1x tetracycline inducer. After an overnight incubation at 30 C in 5% CO2, cells are loaded with 2 ul of the no wash Calcium Assay Kit (ABD Bioquest) and incubated at room temperature for 30 to 90 minutes. Agonist read: A 10 cycle (1 second/cycle) baseline measurement is taken and then the FDSS online 1536 pintool delivers 23 nl of compound library (as well as dopamine controls) to the plate. The plate is measured for kinetically at 1 cycle/sec for 180 seconds. Following the 180 second read, 1 ul of an EC80 (negative modulation assay) is delivered by an onboard pipette head. Measurements are taken kinetically for an additional 180 seconds.

SMILES | inhibition
Cc1cc(C)n(-c2nnc(Nc3cc(Cl)ccc3C)c3ccccc23)n1 | 10.9%
Cc1nc(-c2ccc(C)c(S(=O)(=O)N3CCC(C(=O)Nc4ccc(Cl)cc4)CC3)c2)no1 | 1.14%
COc1ccc(NC(=O)c2sc3nc4c(cc3c2N)CCCCCC4)cc1OC | -5.57%
Cc1nn(C)c(C)c1S(=O)(=O)N(CC(=O)N1CCN(c2ccccc2)CC1)c1ccc(C(C)C)cc1 | -22.4%
CCN(CC)S(=O)(=O)c1ccc(NC2CCN(Cc3ccccc3)CC2)nc1 | active: 36.3%
CCOc1ccccc1NC(=O)C1CCN(S(=O)(=O)c2ccc3[nH]c4c(c3c2)CCCCC4)CC1 | 5.29%
Cn1nc(-c2ccc(C(=O)Nc3cccc(C(F)(F)F)c3)cc2)c2ccccc2c1=O | 4.25%
CCCCC(=O)OC1=C(C(=O)c2ccccc2)N(C)S(=O)(=O)c2ccccc21 | 6.57%
Cc1ccc(CNC(=O)c2cc(S(=O)(=O)N3CCCCCC3)cn2C)cc1 | -25.2%
CCOc1ccccc1NC(=O)CN1c2ccccc2S(=O)(=O)c2ccccc21 | 11.6%
O=C(Nc1ccc(F)cc1F)c1cnn(-c2ccc(F)cc2)c1-n1cccc1 | -17.5%
Cc1cccc(CNC(=O)c2ccc3c(c2)N(C)C(=O)C2CCCCN32)c1 (stereo not drawn) | 21.4%
COc1ccc(CNS(=O)(=O)c2cnc(N)nc2)cc1 | 12.7%
COc1cccc2c1Oc1ncccc1N(C(=O)Nc1cccc(Cl)c1)C2 | 12.1%
O=c1c2cccnc2[nH]c(=S)n1CCCN1CCN(c2ccccc2F)CC1 | active: 116%
O=C(c1ccc(Cl)cc1)N1CCN(CCOc2ccccc2)CC1 | active: 76.4%
COc1cccc(CNC(=O)C2CCN(S(=O)(=O)N3CCC(C)CC3)CC2)c1 | -22.9%
O=C(/C=C/c1ccccc1Cl)N(c1ccccn1)C1CCCCC1 | active: 98.8%
CC1CCN(S(=O)(=O)c2ccc3nc(Nc4ccc(C#N)cc4)ccc3c2)CC1 | 0.292%
O=C(NCC(c1cccnc1)N1CCc2ccccc2C1)C(=O)Nc1ccccc1 (stereo not drawn) | 5.36%
COc1ccccc1CNS(=O)(=O)c1ccc(F)c(C(=O)Nc2cc(Cl)ccc2OC)c1 | -3.57%
COc1ccccc1N1CCN(S(=O)(=O)c2c(C)nc3sc(C)c(C)n3c2=O)CC1 | -5.6%
Cc1cccc(OCCSc2nc(-c3cccs3)nc3cc(=O)[nH]n23)c1 | -1.01%
CCOc1ccc(Nc2nc(N)nc(CN3CCN(c4ccccc4F)CC3)n2)cc1 | active: 33%

SMILES | inhibition
COc1ccc(Cn2ccc3nc(C)c(C(=O)Nc4ccc(OC(F)(F)F)cc4)cc3c2=O)cc1 | 12.3%
CCCCC(=O)OC1=C(C(=O)c2ccccc2)N(CC)S(=O)(=O)c2ccccc21 | 2.69%
CSc1ccc(CNC(=O)c2cc3cc(S(=O)(=O)N4CCCCC4)ccc3n2C)cc1 | -13.4%
O=C(Nc1cccc(-c2nc3ccccc3o2)c1)c1cccc(Br)c1 | 13.9%
Cc1ccc(CN2C3CCCC2CC(NC(=O)c2ccc(F)cc2)C3)cc1 (stereo not drawn) | active: 92.1%
CCOC(=O)c1c(Nc2cc(C)cc(C)c2)nnc(-c2ccccc2)c1-c1ccccc1 | -12.9%
Cc1cccc(-n2c3nc(=O)[nH]c(=O)c-3cc3c(C)nn(-c4ccccc4)c32)c1C | -1.35%
COc1ccccc1NC(=O)CSC1=Nc2ccccc2N=C(c2ccc(F)cc2)C1 | -21%
O=C(Nc1ccccc1)c1cn(-c2ccccc2)nc1-c1ccccc1 | 4.66%
CCN(C(=O)Cn1c(=O)n(CC2CCC(C(=O)NC)CC2)c(=O)c2sccc21)c1ccccc1 (stereo not drawn) | 7.08%
COc1cc2c(C(=O)N(C)c3cc(Cl)ccc3OC)cn(CC(C)C)c(=O)c2cc1OC | -16.6%
Cc1nn(CCCC(=O)Nc2cccc(F)c2)c(=O)c2c1sc1ccccc12 | 9.74%
COc1ccccc1N1CCN(CCCCOc2cccc3ccccc23)CC1 | active: 73.1%
Cc1ccc(SCC(=O)Nc2cccc(S(=O)(=O)N3CCOCC3)c2)cc1C | active: 34.9%
COc1ccc(NC(=O)CN2C(=O)CCc3cc(S(=O)(=O)N4CCOCC4)ccc32)cc1Cl | -15.4%
CCN(CC)C(=O)CSc1nc2ccccc2c(=O)n1Cc1ccco1 | 20.3%
Cc1ccc(NC(=O)Cn2c(-c3cncs3)nc3ccccc32)cc1Br | -8.15%
COc1ccc(Cl)cc1NC(=O)N1CC(=O)Nc2sc3c(c2C1c1ccccc1)CCCC3 (stereo not drawn) | -23.5%
CC1CCN(S(=O)(=O)c2ccc3c(c2)N(CC(=O)N2CCN(c4ccccc4)CC2)C(=O)CO3)CC1 | -0.18%
CC(=O)c1ccc(NC(=O)Cn2ncc3c(C)n(Cc4ccc(F)cc4)c(C)c3c2=O)cc1 | 1.13%
COc1ccccc1CNc1ncnc2c1c(-c1ccccc1)cn2-c1cccc(C)c1 | -16.3%
CN(C)S(=O)(=O)c1ccc(Cl)c(NC(=O)CN2CCCCCC2)c1 | active: 34%
COc1ccccc1C(=O)Nc1nc2nc(C)c(Cc3ccccc3)c(=O)n2[nH]1 | 9.86%
COc1cccc(Cn2c(CNS(=O)(=O)c3ccc4c(c3)CCCC4)nc3cccnc32)c1 | 21.4%
